Experimental data taken from the supplement of paper PMC9446081.
The whole screen tested about 39,000 compounds, of which about 220 (0.56%) showed activity. Some of the results follow.

tested on: Escherichia coli K-12 BW25113; assay: relative growth (OD600 normalised to plate interquartile mean) (fraction); higher = less growth inhibition, active = 0.2 or less; conditions: 50 µM; LB; incubation time: overnight (16-24 h)
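Further: static incubation at 37 °C against the wild-type strain, values averaged over two biological replicates.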

Structure (SMILES)	relative growth
NC1(c2cccc(Cl)c2)CC1	inactive: 1.02
C=C(CCCCCCCCCCCCCCCC)OOC[C@@H](COP(=O)(ON)O[C@@H]1[C@H](O)[C@H](O)[C@@H](OP(=O)(O)ON)[C@H](OP(=O)(O)ON)[C@H]1O)OOC(=C)CC/C=C/C/C=C/C/C=C/C/C=C/CCCCC (stereo partly specified)	inactive: 1.01
CC(C)[C@@H]1NC[C@@H]2CCCN2C1=O	inactive: 0.992
N[C@@H](c1ccccc1)[C@@H](N)c1ccccc1	inactive: 0.986
Cc1ccc(CC2(N)CC2)cc1	inactive: 0.977
CN1CCCCC1c1ccc(-c2cccnc2)nc1.Cl (stereo unspecified)	inactive: 0.864
C[C@@H]1CN([C@@H](C)CO)C(=O)CCCn2nncc2CO[C@H]1CN(C)C(=O)Oc1ccc2ccccc2c1	inactive: 0.968
CNCC(O)c1ccc(O)cc1 (stereo unspecified)	inactive: 0.824
C#CCN(C)C(C)Cc1ccccc1.Cl (stereo unspecified)	inactive: 1.01
COC(=O)[C@H]1[C@H]2CO[C@@H]1CN2	inactive: 0.993
CCn1cc2nc(N3CCNCC3)[nH]cc-2c1=O	inactive: 1.04
Cn1cc(C(=O)Nc2nn[nH]n2)c2ccccc21	inactive: 1.02
O=C(NC[C@@H]1CC[C@H]2NC[C@H]2O1)C1CCCC1	inactive: 1.03
O=C(NC(=O)c1ccccc1Cl)Nc1ccc(OC(F)(F)F)cc1	inactive: 1.1
COC(=O)[C@@]1(Cc2ccccc2CN=[N+]=[N-])N=C(c2ccc(OCCCO)cc2)O[C@H]1c1ccccc1CN=[N+]=[N-]	inactive: 1.04
Cc1nc(-c2ccc(-c3ccc(C(=O)N4CCc5cc6c(cc54)C4(CCN(C)CC4)CO6)cc3)c(C)c2)no1	inactive: 0.932
COc1cc2c(cc1C=O)OCO2	inactive: 0.989
CC(=O)OCC1=C2C(=O)[O][Zn][O]C(=O)[C@@H](N)CCCC(=O)N[C@@H]3C(=O)N2[C@@H]3SC1	inactive: 1.06
C[C@@H](N)Cc1c[nH]c2ccc(O)cc12	inactive: 0.986

Structure (SMILES)	relative growth
CNC(C)C(O)c1ccccc1.Cl (stereo unspecified)	inactive: 1.14
COC(=O)C[C@@H]1CC[C@H]2NC[C@H](O)COC[C@@H]2O1	inactive: 1
CCC(=O)CCCCC[C@@H]1NC(=O)[C@H]2CCCCN2C(=O)[C@H]([C@H](C)CC)NC(=O)[C@H](Cc2cn(OC)c3ccccc23)NC1=O	inactive: 1
CC(NC(C)(C)C)C(=O)c1cccc(Cl)c1.Cl (stereo unspecified)	inactive: 0.976
O=C(O)[C@H]1[C@H](C(=O)O)[C@H]2CC[C@@H]1O2	inactive: 1.01
C[C@@H]1CN([C@@H](C)CO)C(=O)c2c(c3ccccc3n2C)-c2ccccc2CO[C@H]1CN(C)C(=O)Oc1ccccc1	inactive: 1.01
CNC(Cc1c[nH]c2ccccc12)C(=O)O (stereo unspecified)	inactive: 1.07
CCOP(=S)(OCC)Oc1cc(C)nc(C(C)C)n1	inactive: 1.12
CC(C)(C)[C@]1(O)C[C@@H]2OC(=O)C[C@@]23C(=O)O[C@@H]2OC(=O)[C@H](O)[C@]213	inactive: 0.998
CN1CCN(c2nc(=O)c3c([nH]2)CCCC3)CC1	inactive: 1
N[C@@H](Cn1oc(=O)[nH]c1=O)C(=O)O	inactive: 1.03
CC(=O)OC1CC2(C)C(c3ccoc3)CC3OC32C2(C)C(=O)C(O)=C3C(C)(C)C(=O)C=CC3(C)C12 (stereo unspecified)	inactive: 1.06
O=C(c1ccco1)N1[C@@H]2CC[C@H]1CNC2	inactive: 1.01
Cc1cc(C(=O)N2CC[C@H]3[C@@H]2CCN3C)no1	inactive: 1.02
N[C@H]1CCCN(Cc2cccnc2)C1	inactive: 1.03
CCCCCC1C(=O)OC(C)C(NC(=O)c2cccc(NC=O)c2O)C(=O)OC(C)C1OC(=O)CC(C)C (stereo unspecified) [ANTIMYCIN A (A1 shown)]	inactive: 0.849
O=C1CC[C@]2(CCCN(Cc3cnc[nH]3)C2)N1	inactive: 1.02
C#CC1(O)C=CC2C3CCC4=CC(=O)CCC4C3CCC21CC (stereo unspecified)	inactive: 1.04
CN[C@@H]1[C@@H](O)[C@@H](O[C@@H]2[C@H](O)[C@@H](O[C@H]3O[C@H]([C@@H](C)O)[C@@H](O)[C@H](O)[C@H]3N)[C@H](N)C[C@@H]2N)OC[C@]1(C)O	inactive: 0.484

Structure (SMILES)	relative growth
c1ccc2c(c1)Nc1ccccc1S2	inactive: 0.886
CCN1CCN(c2nc(=O)cc(C)[nH]2)CC1	inactive: 1.01
[N-]=[N+]=NCc1ccccc1C[C@@]1(C(=O)NCCN2CCOCC2)N=C(c2ccc(OCCCO)cc2)O[C@@H]1c1ccccc1N=[N+]=[N-]	inactive: 0.969
O=C1CCN(C(=O)C2CCC2)CC1	inactive: 0.985
C=CCOC(Cn1ccnc1)c1ccc(Cl)cc1Cl.O=S(=O)(O)O (stereo unspecified)	inactive: 0.797
NC1(Cc2ccc(Cl)cc2)CC1	inactive: 0.969
OCCN1CC2(CCN(c3nccs3)C2)C1	inactive: 0.999
N#Cc1nn(-c2c(Cl)cc(C(F)(F)F)cc2Cl)c(N)c1S(=O)C(F)(F)F (stereo unspecified)	inactive: 0.875
CC12CCC3C(CCC45OC4C(O)=C(C#N)CC35C)C1CCC2O (stereo unspecified)	inactive: 0.865
CC(=O)OCC1=C(C(=O)O)N2C(=O)[C@@H](N)[C@H]2SC1	inactive: 1.01
C[C@@H]1CN([C@@H](C)CO)C(=O)CCCn2cc(nn2)CO[C@H]1CN(C)C(=O)Oc1cccc2ccccc12	inactive: 1
C=C(C)[C@@H]1[C@H]2OC(=O)[C@@H]1[C@]1(O)C[C@H]3O[C@]34C(=O)O[C@H]2[C@]14C	inactive: 0.975
CC(=O)O[C@H]1C(=O)[C@]2(C)[C@@H](O)C[C@H]3OC[C@@]3(OC(C)=O)[C@@H]2[C@H](OC(=O)c2ccccc2)[C@]2(O)C[C@H](O)C(C)=C1C2(C)C	inactive: 0.994
C[C@]12C(=O)OC(=O)[C@]1(C)[C@H]1CC[C@H]2O1	inactive: 0.97
CC1OC(OC2CCC3(C=O)C4CCC5(C)C(C6=CC(=O)OC6)CCC5(O)C4CCC3(O)C2)C(O)C(O)C1O (stereo unspecified)	inactive: 1.15
C[C@H]1CN([C@@H](C)CO)C(=O)CCCn2cc(nn2)CO[C@H]1CN(C)C(=O)Oc1cccc2ccccc12	inactive: 1.01
S=C1NCCN1	inactive: 0.972
CC(=O)[C@]12[C@@H]3CC=C[C@H]1N2CC3 (stereo partly specified)	inactive: 0.988
